The whole screen tested about 390,000 compounds, of which about 150 (0.038%) were called active. Inconclusive means that the source gave no clear call. Such entries were picked first, then a sample of the others. Calls follow the shape of the dose curve; as a rule, active = well fitted inhibition curve with a large enough effect; inconclusive = small, poorly fitted or top-dose-only effect; inactive = no such curve, though single readings can be large or run the other way. A potency beside an inconclusive call is a rough fit, not a confirmed value.
Biological target: Regulator of G-protein signaling 4 (Homo sapiens) (UniProt P49798)
UniProt P49798, sequence (P49798 whole entry, looked up): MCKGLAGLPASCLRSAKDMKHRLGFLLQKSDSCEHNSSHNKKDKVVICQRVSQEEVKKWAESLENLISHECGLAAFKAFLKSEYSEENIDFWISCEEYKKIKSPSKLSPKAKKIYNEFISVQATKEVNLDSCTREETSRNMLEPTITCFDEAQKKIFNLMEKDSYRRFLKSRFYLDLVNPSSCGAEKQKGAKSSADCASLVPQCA
Test: Inhibitors of Regulator of G Protein Signaling (RGS) 4: qHTS; also: nearly all actives have a fitted effect of over 75% in size
Conditions: Transcreener GDP fluorescence polarization, RGS4-accelerated GTP hydrolysis; series mostly up to 114 µM; activity change, negative = inhibition: at the top concentration
Summary of the method: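 MLSMR compounds (23 nl, pin-transferred) preincubated 10 min at room temperature with a 500nM (2x) first reagent, then RGS4 at 900nM (2x) plus Transcreener GDP mix added; fluorescence polarization (620/688 nm) read before and after 90 min at 30 °C.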
% is scaled to controls: 0 for no effect and ±100 for the full control effect; potency is read from the fitted curve at half-maximal effect; tags tell the direction and shape of the fitted curve.

SMILES	Potency	activity change, negative = inhibition
Cc1cc(C)n2nc(-c3ccc(Cl)cc3)cc2n1	inconclusive: 100 µM [inhibitor, single point]	
NC(=O)c1cc(Cc2ccccc2)sc1NC(=O)c1ccco1	inconclusive: 44.7 µM [inhibitor, partial curve, poor fit]	
CCc1ccc(NC(=S)NC2CCN(Cc3ccccc3)CC2)cc1		inactive: -21.5%
Cn1cc(Cl)c(C(=O)NC(=S)Nc2sc3c(c2C#N)CCCCC3)n1	inconclusive: 79.4 µM [inhibitor, partial curve, poor fit]	
Cc1cccc(C(=O)/C=C2/c3ccccc3CC(C)(C)N2C)c1		inactive: -9.64%
Cc1ccc([N+](=O)[O-])cc1Nc1nc(N2CCCC2)nc(N2CCCC2)n1	inconclusive: 50.1 µM [inhibitor, partial curve, poor fit]	
COc1ccc(OC)c(N2C(=O)C(Cl)=C(N3CCOCC3)C2=O)c1	inconclusive: 89.1 µM [inhibitor, single point]	
CCOC(=O)Cc1csc(NC(=O)CSc2nc(C)cc(=O)[nH]2)n1	inconclusive: 70.8 µM [inhibitor, partial curve, poor fit]	
COc1cccc2c1O/C(=N\O)C(C(=O)Nc1ccc(C)cc1)C2 (configuration not stated)		inactive: 3.54%
O=C(N/N=C/c1ccc(-c2ccc(S(=O)(=O)Nc3ncccn3)cc2)o1)c1cc2ccccc2cc1O	inconclusive: 50.1 µM [inhibitor, partial curve, poor fit]	
O=c1cc(Br)c(O)c(Br)cc1Br	inconclusive: 39.8 µM [inhibitor, partial curve, poor fit]	
CC(C)NCCCOc1ccc(Cl)cc1Br		inactive: 25.1%
CCS(=O)(=O)c1ncc(Cl)c(C(=O)Nc2ccc(S(=O)(=O)N(C)c3ccccc3)cc2)n1	inconclusive: 79.4 µM [inhibitor, partial curve, poor fit]	
COc1ccc(NC(=O)CN(C)CC(=O)Nc2cccc(F)c2)cc1S(=O)(=O)N1CCCCC1	inconclusive: 100 µM [inhibitor, single point]	
COc1ccccc1C(=O)Nc1nnc(SCc2cc(=O)c3ccccc3[nH]2)s1	inconclusive: 50.1 µM [inhibitor, partial curve, poor fit]	
O=C1c2ccccc2C(=O)N1CCC(c1ccc(F)cc1)c1ccco1 (configuration not stated)	inconclusive: 50.1 µM [inhibitor, partial curve, poor fit]	
CCOC(=O)C1=C(C)N=C2SC(C(=O)OC)=CC(=O)N2C1c1ccc(F)cc1 (configuration not stated)	inconclusive: 17.8 µM [inhibitor, full curve, poor fit]	
CC(C)n1cnc2c(NCc3ccccc3)cc(OCC3CCN(C)CC3)cc21	inconclusive: 31.6 µM [inhibitor, full curve, poor fit]	
COc1ccc(C(=O)/C=C/c2cn(CC(O)CN3CCCCCC3)c3ccccc23)cc1OC (configuration not stated)	inconclusive: 89.1 µM [inhibitor, single point]	
Cc1oc(-c2ccccc2)nc1C(=O)N1CCN(c2ccc(F)cc2)CC1	inconclusive: 79.4 µM [inhibitor, partial curve, poor fit]	
Cc1ccc(CCNC(=O)C2CCCN(S(=O)(=O)c3cccs3)C2)cc1 (configuration not stated)		inactive: -10.2%

SMILES	Potency	activity change, negative = inhibition
C=CCn1c(=O)c(C(=O)Nc2ccccc2C)c(O)c2ccccc21	inconclusive: 79.4 µM [inhibitor, single point]	
Cc1cc(C(=O)OCC(N)=O)c(C)n1-c1ccccc1	inconclusive: 56.2 µM [inhibitor, partial curve, poor fit]	
CC(C)C[C@H]1CN([C@@H](CC(C)C)CN2CCCC2CN2C(=S)NC[C@@H]2Cc2ccc(O)cc2)C(=S)N1CCc1ccccc1 (some centres not stated)		inactive: 5.32%
N[C@H](Cc1c[nH]c2ccccc12)C(=O)O	active: 21.2 µM	
O=C(O)/C=C/c1ccc(S(=O)(=O)Nc2ccccc2C(=O)Nc2ccc(F)cc2)cc1		inactive: 12.3%
O=C(O)Cc1sc(Nc2ccc(Cl)cc2)nc1-c1cccs1	inconclusive: 89.1 µM [inhibitor, partial curve, poor fit]	
COc1ccc(C(=O)COc2ccc3ccc(=O)oc3c2)c(OC)c1	inconclusive: 79.4 µM [inhibitor, partial curve, poor fit]	
CCc1ccc(Nc2c([N+](=O)[O-])c(=O)oc3ccccc23)cc1	inconclusive: 89.1 µM [inhibitor, single point]	
O=C(c1ccccc1)c1ccc2nc(N3CCCCC3)c3nncn3c2c1	inconclusive: 79.4 µM [inhibitor, partial curve, poor fit]	
CCOC(=O)c1ccc(NC(=O)CSc2nnc(CCc3ccc(C)o3)n2-c2ccccc2)cc1	inconclusive: 28.2 µM [inhibitor, full curve, poor fit]	
COc1ccccc1NC(=O)CSc1nc2c(sc3ccccc32)c(=O)n1CCN(C)C	inconclusive: 100 µM [inhibitor, partial curve, poor fit]	
COc1cccc(/C=C(/C#N)c2ccc(F)cc2)c1OCc1cccc(C(=O)O)c1		inactive: -9.94%
Cc1cc2oc(C(=O)Nc3ccc(S(=O)(=O)Nc4nccs4)cc3)cc(=O)c2cc1Cl	inconclusive: 35.5 µM [inhibitor, full curve, poor fit]	
CCCCC(=O)Nc1nc(C)c(-c2csc(Nc3cc(Cl)ccc3OC)n2)s1	inconclusive: 31.6 µM [inhibitor, full curve, poor fit]	
CN1CCN(C(=S)c2ccc(Br)cc2)CC1	inconclusive: 17.8 µM [inhibitor, full curve, poor fit]	
CC(C)Cn1c(=S)[nH]c2cc(C(=O)NCc3ccccc3F)ccc2c1=O		inactive: 11.9%
CCCCOc1cccc(C(=O)NC(=S)Nc2cccc(C(F)(F)F)c2)c1	inconclusive: 31.6 µM [inhibitor, partial curve, poor fit]	
COc1ccc(OC)c(CNC(=O)Cc2c(C(=O)O)[nH]c3ccc(Cl)cc23)c1	inconclusive: 79.4 µM [inhibitor, partial curve, poor fit]	
S=c1[nH]nc(-c2ccco2)n1/N=C/C(Cl)=C/c1ccccc1	inconclusive: 89.1 µM [inhibitor, partial curve, poor fit]	
CCCCN(CC)CCNC(=S)Nc1ccc2nc(N3CCN(C)CC3)cc(C)c2c1		inactive: -16.4%
CN(C)c1ccnc(NCc2ccccc2)c1C#N	inconclusive: 89.1 µM [inhibitor, partial curve, poor fit]	

SMILES	Potency	activity change, negative = inhibition
COc1ccc(NC(=O)C23CC4CC(C2)CC(n2cnc(Br)n2)(C4)C3)cc1Cl		inactive: 0.708%
CC(C)(C)NC(=O)c1cccc(NC(=O)c2ccco2)c1	inconclusive: 89.1 µM [inhibitor, single point]	
COc1ccccc1C(=O)NC(=S)NC12CC3CC(CC(C3)C1)C2	inconclusive: 100 µM [inhibitor, partial curve, poor fit]	
O=C(Nc1nc2ccccc2[nH]1)c1ccc(F)c(S(=O)(=O)N2CCOCC2)c1		inactive: -11.4%
Cn1c(=O)oc2cc(S(=O)(=O)NC(CC(=O)O)c3cccc(Br)c3)ccc21 (configuration not stated)		inactive: -6.77%
O=C(c1ccccc1)N1CN2CN(C(=O)c3ccccc3)CC([N+](=O)[O-])(C2)C1	inconclusive: 89.1 µM [inhibitor, single point]	
CN(C)C(=S)c1ccccc1	inconclusive: 112 µM [inhibitor, partial curve, poor fit]	
O=C(Nc1ccc(-c2nc3cc(Cl)ccc3o2)cc1)c1cc(Br)ccc1Cl		inactive: 19.2%
O=[N+]([O-])c1c(Nc2ccc(O)cc2)cc(Cl)c2nonc12	inconclusive: 10 µM [inhibitor, full curve, poor fit]	
N#Cc1ccccc1Cn1cc(/C=C/[N+](=O)[O-])c2ccccc21	inconclusive: 17.8 µM [inhibitor, full curve, poor fit]	
CCOc1ccc2[nH]c(=O)c(CN(Cc3nnnn3Cc3ccco3)C3CCCCC3)cc2c1	inconclusive: 79.4 µM [inhibitor, single point]	
CCOc1ccc(CCNC(=O)CCNC(=O)c2ccc(Br)cc2)cc1OCC	inconclusive: 89.1 µM [inhibitor, single point]	
COc1ccc(-c2nc(C)c(CCNS(=O)(=O)c3cc(C)c(C)cc3C)s2)cc1		inactive: 2.91%
O=C(NCCc1ccccc1)c1nnc(Cc2cccc(F)c2)o1		inactive: 7.16%
C[C@@H]1COC(=O)[C@H](NC(=O)OCC2c3ccccc3-c3ccccc32)C/C=C\C[C@@H](CC(=O)N[C@H](CO)Cc2ccccc2)C(=O)N1	inconclusive: 17.8 µM [inhibitor, full curve, poor fit]	
O=C(O)c1ccccc1NS(=O)(=O)c1ccc(N/N=C/c2cccc(O)c2O)c([N+](=O)[O-])c1	inconclusive: 79.4 µM [inhibitor, partial curve, poor fit]	
COc1ccc(C(=O)CN2CCN(CCN3C(=O)c4cccc5cccc(c45)C3=O)CC2)cc1		inactive: -21.5% [at 11.4 µM]
CCOc1ccc(NC(=O)Cn2nnc(-c3ccccc3NC(=O)c3cccs3)n2)cc1	inconclusive: 50.1 µM [inhibitor, partial curve, poor fit]	
Cc1ccc(NC(=O)CSc2nnc(-c3ccco3)c(-c3ccco3)n2)cc1	inconclusive: 44.7 µM [inhibitor, partial curve, poor fit]	
CC(OC(=O)C1COc2ccccc2O1)C(=O)N(C)c1ccccc1 (configuration not stated)	inconclusive: 79.4 µM [inhibitor, single point]	

— PubChem BioAssay AID504845 (National Center for Advancing Translational Sciences (NCATS), 2011)
